{"source": "PubChem BioAssay AID995", "about": "(National Center for Advancing Translational Sciences (NCATS), 2007)", "note": "Screen size: about 72,000 compounds; about 710 (0.99%) were called active. This list was built around the results that the source calls inconclusive (neither active nor inactive); the mix of calls is not that of the screen. Calls follow the shape of the dose curve; as a rule, active = well fitted inhibition curve with a large enough effect; inconclusive = small, poorly fitted or top-dose-only effect; inactive = no such curve, though single readings can be large or run the other way. Potencies of inconclusive entries are left out as doubtful fits. % is scaled to controls: 0 for no effect and ±100 for the full control effect; potency is read from the fitted curve at half-maximal effect; tags tell the direction and shape of the fitted curve.", "data": [{"assay": "qHTS Assay for Inhibitors of the ERK Signaling Pathway using a Homogeneous Screening Assay; also: nearly all actives have a fitted effect of over 55% in size", "conditions": "HEK293-V1b, vasopressin-stimulated pERK AlphaScreen; activity, negative = inhibition: at 57.5 µM (top of the series) unless noted", "outline": "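HEK293 cells stably expressing V1b receptor, seeded overnight in 1% FBS, were treated with compounds for 30 min at 37C, then stimulated 5 min with 25 nM vasopressin; phospho-ERK read by AlphaScreen SureFire after lysis.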", "values": [{"smiles": "Cn1c(/C(C#N)=C(\\O)COc2ccc3ccccc3c2)nc2ccccc21", "Potency": "inactive"}, {"smiles": "c1ccc(Cc2nn3c(C4COc5ccccc5O4)nnc3s2)cc1", "note": "(stereo unspecified)", "Potency": "inconclusive [inhibitor, partial curve]"}, {"smiles": "COc1ccc(-c2nnc(COc3ccc4ccccc4c3)o2)cc1OC", "Potency": "inconclusive [inhibitor, partial curve]"}, {"smiles": "Cc1ccccc1Nc1nc(N)nc(CN2CCN(c3ccccn3)CC2)n1", "Potency": "inconclusive [inhibitor, partial curve]"}, {"smiles": "Cc1ccc(NC(=O)CSc2nnc(-c3ccccc3Br)o2)cc1C", "Potency": "inactive"}, {"smiles": "COc1ccccc1CN1CCCC2(CCN(S(C)(=O)=O)CC2)C1", "Potency": "inactive"}, {"smiles": "C=CCOC(=O)Nc1c(C(=O)OC)[nH]c2ccccc12", "Potency": "inconclusive [inhibitor, single point]"}, {"smiles": "COc1ccc2nc(N3CCC(O)CC3)c(C#N)cc2c1", "Potency": "inactive"}, {"smiles": "O=Nc1c2nc3ccccc3n(O)c-2c2ccccc12", "Potency": "inconclusive [inhibitor, partial curve, poor fit]"}, {"smiles": "O=C(Nc1cnc2ccccc2c1)c1cccc(-n2cnnn2)c1", "Potency": "inconclusive [inhibitor, single point]"}, {"smiles": "Cc1cc(O)c(C(C)(C)C)cc1Sc1cc(C(C)(C)C)c(O)cc1C", "Potency": "inconclusive [inhibitor, partial curve, poor fit]"}, {"smiles": "CCCCNC(=O)COC(=O)c1cc2c(C)nn(-c3ccccc3)c2s1", "Potency": "inactive"}, {"smiles": "CC[C@H](NC(C)C)[C@H](O)c1ccc(O)c(O)c1", "Potency": "inconclusive [inhibitor, full curve]"}, {"smiles": "CCCOc1ccccc1C1CC(=O)Nc2cc3c(cc21)OCCO3", "note": "(stereo unspecified)", "Potency": "inconclusive [inhibitor, single point]"}, {"smiles": "COc1ccccc1-c1cncnc1NCCN1CCOCC1", "Potency": "inactive"}, {"smiles": "Cc1cc(C(C#N)c2ccccc2)n2ncnc2n1", "note": "(stereo unspecified)", "Potency": "inconclusive [inhibitor, single point]"}, {"smiles": "Nc1ccccc1SCc1cn2ccccc2n1", "Potency": "inconclusive [inhibitor, single point]"}, {"smiles": "Cc1ccc2nc(CSc3nnc(-c4ccco4)o3)cc(=O)n2c1", "Potency": "inconclusive [inhibitor, single point]"}, {"smiles": "CCCn1cnc2cc(NCc3cccc(OC)c3O)ccc21", "Potency": "inactive"}, {"smiles": "Cn1cc(C(=O)c2ccccc2)cc1-c1nc2ccccc2n1C", "Potency": "inactive"}, {"smiles": "N#Cc1ccc(COc2ccc(CCO)cc2-n2nc3ccccc3n2)cc1", "Potency": "inconclusive [inhibitor, single point]"}, {"smiles": "Cc1c(C2CCN(CCc3ccccc3)CC2)noc1-c1ccc(Cl)cc1", "Potency": "inactive"}, {"smiles": "CSCCC1NC2(C(=O)Nc3ccc(Cl)cc32)[C@@H]2C(=O)N(C3CCCC3)C(=O)[C@H]12", "note": "(stereo partly specified)", "Potency": "inconclusive [inhibitor, single point]"}, {"smiles": "CCOC(=O)c1c(N)sc(C(N)=O)c1C", "Potency": "active: 12.6 µM"}, {"smiles": "CCC(=O)N(Cc1cc2c(C)cc(C)cc2[nH]c1=O)C1CCCCC1", "Potency": "inconclusive [inhibitor, single point]"}, {"smiles": "COc1cccc(C(=O)Nc2nc(-c3ccc(S(=O)(=O)N4CCOCC4)cc3)cs2)c1", "Potency": "inconclusive [inhibitor, full curve]"}, {"smiles": "CCn1c(C(=O)N2CCCC(C(=O)NCCc3ccc(C)cc3)C2)cc2sccc21", "note": "(stereo unspecified)", "Potency": "inconclusive [inhibitor, single point]"}, {"smiles": "COc1ccc(OCC(O)CNc2ccc(Br)cc2)cc1", "note": "(stereo unspecified)", "Potency": "inconclusive [inhibitor, partial curve]"}, {"smiles": "CCOC(=O)c1ccc(NC(=O)CCc2nc(-c3ccc(Cl)cc3)no2)cc1", "Potency": "inconclusive [inhibitor, full curve, poor fit]"}, {"smiles": "CCOC(=O)/C(C#N)=C1/C=C(C)NC(c2ccccc2O)=N1", "Potency": "inconclusive [inhibitor, full curve, poor fit]"}, {"smiles": "Cc1ccc2[nH]cc(C(=O)CN3CCN(c4ccccn4)CC3)c2c1", "Potency": "inconclusive [inhibitor, single point]"}, {"smiles": "O=C(CSc1nc(-c2cccs2)cc(C(F)(F)F)n1)NCc1ccco1", "Potency": "inactive"}, {"smiles": "C[C@@H]1C[C@H](C)CN(S(=O)(=O)c2cc(Cl)c(Oc3ccc([N+](=O)[O-])cc3Cl)c(Cl)c2)C1", "activity, negative = inhibition": "inactive: -0.696% [at 11.5 µM]"}, {"smiles": "O=C(COc1ccc(F)c(Cl)c1)c1ccc[nH]1", "Potency": "inconclusive [inhibitor, single point]"}, {"smiles": "O=C(CSc1nnc(CSc2nc3ccccc3s2)o1)NC1CCCCC1", "Potency": "inconclusive [inhibitor, partial curve]"}, {"smiles": "COc1ccc(C(=O)N2CCC3(CC2)CN(Cc2ccc(C#N)cc2)C3)cc1", "Potency": "inactive"}, {"smiles": "COc1ccc(C2CC(C(F)(F)F)n3nc(C(N)=O)c(Cl)c3N2)cc1OC", "note": "(stereo unspecified)", "Potency": "inconclusive [inhibitor, single point]"}, {"smiles": "C=CCn1c(=N)c(C(=O)NCCCOC)cc2c(=O)n3ccccc3nc21", "Potency": "inactive"}, {"smiles": "O=c1cnc2cncnc2n1Cc1ccccc1", "Potency": "inactive"}, {"smiles": "Cc1ccc(-n2c(SCc3cn4ccsc4n3)nc3ccccc3c2=O)cc1", "Potency": "inconclusive [inhibitor, partial curve]"}, {"smiles": "Nc1ccccc1S[C@@H](C[N+](=O)[O-])c1ccc2c(c1)OCO2", "Potency": "inconclusive [inhibitor, single point]"}, {"smiles": "O=C(Oc1ccccc1)N1CCN(c2ccc(F)cc2)CC1", "Potency": "inactive"}, {"smiles": "CN1CCc2cccc3c2[C@@H]1Cc1ccc(O)c(O)c1-3", "Potency": "inconclusive [inhibitor, single point]"}, {"smiles": "C[C@H]1C[C@@H]2[C@@H]([C@@H](O)C[C@@]3(C)[C@H]2CC[C@]3(O)C(=O)CO)[C@@]2(C)C=CC(=O)C=C12", "Potency": "inactive"}, {"smiles": "CN1CCN(c2ncc3nc(-c4cn(C)c5ccccc45)c(=O)n(Cc4cccs4)c3n2)CC1", "Potency": "inactive"}, {"smiles": "CCc1nnc(NC(=O)CCC(=O)N2CCN(Cc3ccc(Cl)cc3)CC2)s1", "Potency": "inconclusive [inhibitor, partial curve, poor fit]"}]}]}
